The text below walks through data of article PMC7718735.

Results are given in words; binding and its absence hold for the method and conditions named. Some binding calls cover weakened binding; strength is not graded here.

The target of experiment [1] is T1, Cut11 MYTH bait (wild type) (S. pombe) (UniProt O13961).
T1 sequence: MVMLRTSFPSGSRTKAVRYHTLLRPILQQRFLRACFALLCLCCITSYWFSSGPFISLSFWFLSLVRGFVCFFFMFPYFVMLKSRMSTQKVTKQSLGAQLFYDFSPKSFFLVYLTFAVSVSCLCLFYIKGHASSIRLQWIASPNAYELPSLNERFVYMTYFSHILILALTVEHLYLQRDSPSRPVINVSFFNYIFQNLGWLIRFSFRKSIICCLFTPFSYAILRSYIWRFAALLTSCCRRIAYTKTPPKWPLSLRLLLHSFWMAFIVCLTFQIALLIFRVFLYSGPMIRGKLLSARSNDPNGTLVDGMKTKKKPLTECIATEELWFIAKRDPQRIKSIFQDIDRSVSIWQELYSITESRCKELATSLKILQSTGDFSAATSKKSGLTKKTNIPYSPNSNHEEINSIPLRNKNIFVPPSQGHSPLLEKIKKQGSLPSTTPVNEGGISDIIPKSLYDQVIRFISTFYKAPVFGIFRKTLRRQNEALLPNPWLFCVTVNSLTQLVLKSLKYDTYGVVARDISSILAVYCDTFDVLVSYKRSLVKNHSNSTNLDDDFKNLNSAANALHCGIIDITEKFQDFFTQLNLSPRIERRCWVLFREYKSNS
In words: two-hybrid; MYTH confirmation: bait and prey plasmids sequentially transformed into the haploid reporter strain SLJ5572; ten-fold dilution series on SD-leu-trp-ade-his + 25 mM 3-AT at 30°.

Experiment [2] addresses T2, Cut11 C525R MYTH bait (S. pombe) (UniProt O13961).
T2 sequence: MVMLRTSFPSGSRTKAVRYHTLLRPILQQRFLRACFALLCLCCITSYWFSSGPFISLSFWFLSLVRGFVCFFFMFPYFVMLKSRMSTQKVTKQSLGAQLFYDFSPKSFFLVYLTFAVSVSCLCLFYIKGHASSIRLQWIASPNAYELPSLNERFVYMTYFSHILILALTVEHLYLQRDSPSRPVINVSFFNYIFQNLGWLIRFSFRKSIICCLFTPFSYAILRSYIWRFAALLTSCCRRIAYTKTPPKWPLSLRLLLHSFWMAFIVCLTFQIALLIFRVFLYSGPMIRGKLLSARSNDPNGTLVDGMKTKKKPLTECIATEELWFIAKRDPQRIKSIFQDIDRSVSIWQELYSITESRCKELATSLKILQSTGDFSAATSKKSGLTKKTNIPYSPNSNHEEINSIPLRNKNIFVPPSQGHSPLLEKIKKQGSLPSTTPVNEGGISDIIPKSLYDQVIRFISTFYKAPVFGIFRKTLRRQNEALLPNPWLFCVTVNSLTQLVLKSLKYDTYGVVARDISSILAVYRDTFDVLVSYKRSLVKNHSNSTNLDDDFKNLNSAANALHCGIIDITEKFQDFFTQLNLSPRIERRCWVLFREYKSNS
Description: two-hybrid; split-ubiquitin membrane yeast two-hybrid (MYTH) in S. cerevisiae; bait-Cub-LexA-VP16 strains mated with the arrayed Nub prey library, diploids spotted in quadruplicate on SD-leu-trp-ade-his with 25 mM 3-AT, imaged every 24 hr for 4 days; positive by a colony density cutoff.

The target of experiment [3] is T3, Cut11 L521F MYTH bait (S. pombe) (UniProt O13961).
T3 sequence: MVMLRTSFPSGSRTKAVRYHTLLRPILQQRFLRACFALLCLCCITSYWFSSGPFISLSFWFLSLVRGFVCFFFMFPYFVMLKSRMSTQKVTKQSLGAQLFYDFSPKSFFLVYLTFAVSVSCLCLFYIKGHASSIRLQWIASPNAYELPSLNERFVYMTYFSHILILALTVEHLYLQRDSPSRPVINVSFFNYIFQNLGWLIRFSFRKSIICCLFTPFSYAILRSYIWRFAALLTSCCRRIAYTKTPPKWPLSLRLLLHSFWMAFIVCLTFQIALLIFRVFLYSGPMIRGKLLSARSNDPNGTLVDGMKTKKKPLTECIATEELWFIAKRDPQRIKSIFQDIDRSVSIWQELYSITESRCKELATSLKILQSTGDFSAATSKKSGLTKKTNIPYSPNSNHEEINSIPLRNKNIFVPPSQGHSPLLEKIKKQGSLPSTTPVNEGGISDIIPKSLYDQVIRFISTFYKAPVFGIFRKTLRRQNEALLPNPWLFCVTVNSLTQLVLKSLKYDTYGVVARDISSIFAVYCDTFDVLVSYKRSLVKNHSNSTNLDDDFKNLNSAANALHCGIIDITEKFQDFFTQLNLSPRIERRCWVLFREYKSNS
The experiment is described as above.

The target of experiment [4] is T1, Cut11 MYTH bait (wild type) (S. pombe). Described as above.
Experiment [5] addresses T4, Cut11 T498I MYTH bait (S. pombe) (UniProt O13961).
T4 sequence: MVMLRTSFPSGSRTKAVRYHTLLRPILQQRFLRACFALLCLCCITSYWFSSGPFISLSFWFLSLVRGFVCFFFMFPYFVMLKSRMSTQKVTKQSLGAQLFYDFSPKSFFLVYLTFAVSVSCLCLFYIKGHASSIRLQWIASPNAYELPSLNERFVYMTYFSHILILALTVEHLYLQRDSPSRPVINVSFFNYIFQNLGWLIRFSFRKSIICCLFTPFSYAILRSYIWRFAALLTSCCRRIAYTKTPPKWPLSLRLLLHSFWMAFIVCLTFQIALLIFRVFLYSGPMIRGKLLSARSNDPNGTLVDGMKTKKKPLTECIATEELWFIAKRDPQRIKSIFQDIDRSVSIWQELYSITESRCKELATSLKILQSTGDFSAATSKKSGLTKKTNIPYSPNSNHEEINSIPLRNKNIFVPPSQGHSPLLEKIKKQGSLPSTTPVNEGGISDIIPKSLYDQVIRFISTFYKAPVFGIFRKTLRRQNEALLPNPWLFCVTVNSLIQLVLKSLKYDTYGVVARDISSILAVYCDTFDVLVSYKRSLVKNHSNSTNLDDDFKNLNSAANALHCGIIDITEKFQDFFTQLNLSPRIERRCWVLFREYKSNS
Described as above.

Experiment [6] concerns the target T5, Ima1 MYTH bait (S. pombe) (UniProt O13681).
T5 sequence: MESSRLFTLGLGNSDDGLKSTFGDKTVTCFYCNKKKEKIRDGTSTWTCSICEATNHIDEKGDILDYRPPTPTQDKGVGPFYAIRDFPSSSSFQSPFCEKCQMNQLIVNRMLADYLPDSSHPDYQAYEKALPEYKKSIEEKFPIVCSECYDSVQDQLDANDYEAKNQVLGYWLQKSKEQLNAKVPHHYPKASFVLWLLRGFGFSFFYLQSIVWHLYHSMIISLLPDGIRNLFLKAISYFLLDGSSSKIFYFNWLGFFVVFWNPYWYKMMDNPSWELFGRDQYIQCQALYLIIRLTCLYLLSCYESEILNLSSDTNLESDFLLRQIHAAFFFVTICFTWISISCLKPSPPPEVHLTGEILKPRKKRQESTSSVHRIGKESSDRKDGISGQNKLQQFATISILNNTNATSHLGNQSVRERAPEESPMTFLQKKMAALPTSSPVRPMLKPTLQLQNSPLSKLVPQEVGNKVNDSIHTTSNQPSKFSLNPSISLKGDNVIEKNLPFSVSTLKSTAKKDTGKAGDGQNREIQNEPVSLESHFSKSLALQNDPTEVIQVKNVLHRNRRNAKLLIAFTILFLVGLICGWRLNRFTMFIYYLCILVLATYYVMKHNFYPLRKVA
Description: two-hybrid; MYTH confirmation: bait and prey plasmids sequentially transformed into the haploid reporter strain SLJ5572; ten-fold dilution series on SD-leu-trp-ade-his + 25 mM 3-AT at 30°.

The target in experiment [7] is T5, Ima1 MYTH bait (S. pombe). In words: two-hybrid; split-ubiquitin membrane yeast two-hybrid (MYTH) in S. cerevisiae; bait-Cub-LexA-VP16 strains mated with the arrayed Nub prey library, diploids spotted in quadruplicate on SD-leu-trp-ade-his with 25 mM 3-AT, imaged every 24 hr for 4 days; positive by a colony density cutoff.
The target in experiment [8] is T6, Lem2 MYTH bait (S. pombe) (UniProt Q10109).
T6 sequence: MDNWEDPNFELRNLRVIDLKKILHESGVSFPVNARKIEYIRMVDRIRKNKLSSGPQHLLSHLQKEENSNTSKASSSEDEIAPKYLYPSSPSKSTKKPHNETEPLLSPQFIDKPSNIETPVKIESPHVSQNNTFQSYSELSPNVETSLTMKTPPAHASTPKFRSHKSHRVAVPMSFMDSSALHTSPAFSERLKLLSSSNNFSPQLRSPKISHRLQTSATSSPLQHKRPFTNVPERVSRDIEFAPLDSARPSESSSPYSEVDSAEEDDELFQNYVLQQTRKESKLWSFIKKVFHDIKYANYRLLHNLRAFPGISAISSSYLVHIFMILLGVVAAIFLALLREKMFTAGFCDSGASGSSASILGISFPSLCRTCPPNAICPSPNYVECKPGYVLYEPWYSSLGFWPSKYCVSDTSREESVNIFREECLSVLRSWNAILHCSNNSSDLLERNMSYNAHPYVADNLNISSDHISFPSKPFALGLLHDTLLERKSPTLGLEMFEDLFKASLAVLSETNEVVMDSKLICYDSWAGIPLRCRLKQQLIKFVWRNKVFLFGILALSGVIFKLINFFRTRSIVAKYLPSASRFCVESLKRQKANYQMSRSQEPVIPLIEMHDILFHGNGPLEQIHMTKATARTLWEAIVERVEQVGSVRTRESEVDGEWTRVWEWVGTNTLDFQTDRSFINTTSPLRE
Description: two-hybrid; MYTH confirmation: bait and prey plasmids sequentially transformed into the haploid reporter strain SLJ5572; ten-fold dilution series on SD-leu-trp-ade-his + 25 mM 3-AT at 30°.

The target of experiment [9] is T6, Lem2 MYTH bait (S. pombe). In words: two-hybrid; split-ubiquitin membrane yeast two-hybrid (MYTH) in S. cerevisiae; bait-Cub-LexA-VP16 strains mated with the arrayed Nub prey library, diploids spotted in quadruplicate on SD-leu-trp-ade-his with 25 mM 3-AT, imaged every 24 hr for 4 days; positive by a colony density cutoff.

B1: Tts1 MYTH prey (protein, UniProt Q9Y7Z5 1-279)
chain: MEPKQRVVKPLKERVLPVVKNTQFVWFSGQVIVLISSVLYALQAIPFRSAPPFLFKSAAFGAIVAYAIVLYKTYSPNLTSRASWNKHFFARLMLDDNVQYFILALSMLIDRPILFSLAPYAIYATFHISTYLRSVLLPAIYPNISDAKTASYASRVSNLLNQYTRSQFQPAMQLVASLETFLLFRLFFGVFLRKNSISRLVGYIFFLRMRYTNSHFTRASIKAVSLRMDRLVADNRVPPVIKNAWHTFKTYVSKFGASPVGTAQSRPTASSSTTAPSST
As to B1, the binding result in experiment [1] is recorded as “binds”; in experiment [2], “no binding”; in [3] it was “binds”; in [4], “binds”; in [5], “no binding”.

B2: Nvj2 MYTH prey (protein, UniProt O94464 1-779)
chain: MFFAFLITYLLGGVTFLPFILFIYLLTRPTHKSEELRIIEPNNDCLTKLDKDIRIQGWIRVTTKFLQGKSGSVKVQEIPQDQLPKSSSDNAVTDRKTISPSGINNQYVIRNPKDVYYATVQAGKLHLFDPVKTSELLHVINLHEYLVVFYPGTVTENELFSNRNAIFLKYPAVSHKKESSTKSLLNKDLYVYGRTPSNKEDWNYALLSYSKISPAIKPLEAPIDFDYASVHHNLTALSSPDTDWLNAFIGRIFLGIHKTEGFKSLVVEKLTKKLSRIKTPGIMTDVKVIDVDVGEAIPTVNGLKFESLSNGGELIVSADIWYEGDCSFKAETTANIKFGSHFPSKTVPLALVIRLTHVSGKVRLLIKPPPSNRVWYAFYEKPRLHLIVEPMVARKQLTNNYLINFITQKLVELVHETIVMPNMNDLAFFIDNEAPIKGGLWDIELFRAPTIQKPAEKDAKAERKKSGLSSSTSEESLNRHISKRSSNSNDTAPSSHIIADKNLEPTSNIQLKKNPDGNLVETSELSDSDENSVLSNKSSTLSKKVVENTSPLKYTHSASKSFIGEVQDSLQALKTKAHKPRSIGGDSSQTTLSETTKKYGSVAKKSFFQGVSDAKSFVKKIKSTYIDDSSSNSPSDIESNYSADDNEISKSKAQNAIDFNVTNTHSPSRSISSEKSYKAAERGQQDKHNDVLVDLNPNVEAEKSNPHSNSQKTSKNDMSRNQRNKYAKEIMTGQPTLHPQGQLPIQNVEQRATHKPLPRPPVQVETREPVRPVPPIPKL
For B2, the binding entry in experiment [6] and in experiment [7] was “binds” throughout.

B3: Tvp15 MYTH prey (protein, UniProt O14223 1-132)
chain: MDKTKMFSAINLGVGGIFVLSGFIKLFSFSFVNALLALFIIVFGLGTIGLEKEIPPIAIKYGSFMFSFLGRGFFYAFMGTLLFSYSGFTSFLGFLVLLAGIAYCGANYVAGLQDYAPRSMRDNDWDDNVDEV
B3: the binding result in experiment [8] is given as “binds”; in [9] it was “binds weakly”.
